Measured values as given in PMC6919601, “Identification of Plasmodium dipeptidyl aminopeptidase allosteric inhibitors by high throughput screening” (PLoS ONE, 2019).
Values joined by “and” are separate entries in the source; they are usually repeats but may differ in a detail not shown here. Equal entries are not always repeated. Out of some 110,000 compounds screened, about 230 (0.21%) showed an effect of 50% or more. The list shows a part of the results.

molecular target: DPAP1 (Plasmodium falciparum, UniProt Q8IIJ9); experiment: primary screen, percent inhibition; read by cleavage of a fluorogenic dipeptide substrate; higher = more effect of the substance; set-up: species or system P. falciparum D10 trophozoite lysates; single well
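Further: 30 min substrate incubation versus DMSO and 10 µM JCP410 controls.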

Chain of DPAP1 (Q8IIJ9 whole entry, looked up): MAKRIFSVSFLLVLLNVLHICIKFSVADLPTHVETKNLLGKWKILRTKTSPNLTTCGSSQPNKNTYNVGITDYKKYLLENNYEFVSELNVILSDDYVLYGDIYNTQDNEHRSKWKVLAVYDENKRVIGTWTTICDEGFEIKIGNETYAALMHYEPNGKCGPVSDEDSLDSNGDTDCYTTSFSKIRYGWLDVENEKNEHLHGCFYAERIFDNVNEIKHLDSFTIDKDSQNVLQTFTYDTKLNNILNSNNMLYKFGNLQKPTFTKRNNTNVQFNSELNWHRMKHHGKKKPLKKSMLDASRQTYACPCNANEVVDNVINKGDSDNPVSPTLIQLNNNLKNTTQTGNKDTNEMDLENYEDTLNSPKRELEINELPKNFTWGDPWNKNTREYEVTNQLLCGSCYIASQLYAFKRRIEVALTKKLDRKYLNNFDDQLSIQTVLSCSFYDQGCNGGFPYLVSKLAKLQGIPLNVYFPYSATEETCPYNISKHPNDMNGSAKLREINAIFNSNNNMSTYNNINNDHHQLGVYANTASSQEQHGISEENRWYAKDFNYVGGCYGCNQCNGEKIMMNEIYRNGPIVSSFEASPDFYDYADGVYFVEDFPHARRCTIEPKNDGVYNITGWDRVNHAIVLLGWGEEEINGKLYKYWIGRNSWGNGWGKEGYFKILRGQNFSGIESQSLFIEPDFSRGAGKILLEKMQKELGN

| SMILES | % Inhibition @ 10 uM |
| --- | --- |
| c1ccc2[nH]c(SCCN3CCCC3)nc2c1 | -5.92% |
| CCC1(c2ccccc2)C(=O)N(C)C(=O)N(C)C1=O | 4.41% |
| CCn1cc(CCC(=O)NCc2cc(Br)ccc2OC)c2ccccc21 | -1.11% |
| COc1ccc(NC(=O)COc2nc(N(C)C)nc(N(C)C)n2)cc1 | 0.365% |
| CN1CCN(C2=Cc3ccccc3Sc3ccccc32)CC1 | 0.843% |
| CS(=O)(=O)c1nc(S(=O)(=O)c2ccc(Cl)cc2)c(N2CCC(C(N)=O)CC2)s1 | 0.942% |
| CN1C(=O)C(O)(CC(=O)c2cccc(Br)c2)c2ccccc21 (stereo not drawn) | 1.72% |
| CCC(Sc1nnc2c(n1)[nH]c1ccccc12)C(=O)Nc1nc2ccccc2s1 (stereo not drawn) | -6.6% |
| C=CCN1C(=O)N/C(=C/c2ccc(OC)c(OCC)c2)C1=O | -3.41% |
| COC(=O)c1cnn2c1NCN(CCN1CCc3ccccc3C1)C2 | -2.88% |
| Fc1ccc(NC2CN3CCC2CC3)cc1Cl (stereo not drawn) | 1.42% |
| CC(NC(=O)c1cc(O)nc2ccc(Br)cc12)c1ccc2c(c1)OCCO2 (stereo not drawn) | 4.81% |
| c1cc(CNC2C3CC4CC(C3)CC2C4)ccn1 (stereo not drawn) | 8% |
| CC(NC(=O)C1CCN(c2nnc(N3CCCC3=O)s2)CC1)c1ccccc1 (stereo not drawn) | -4.68% |
| C#CC(C)(CC)NC(=O)CSc1nnnn1-c1ccc(Cl)cc1 (stereo not drawn) | -0.403% |
| CC(=O)N1CC[C@@]2(O)CCCC[C@@H]2[C@H]1c1cccc(Br)c1 | 4.26% |
| CC(=O)c1ccc2c(c1)Nc1ccccc1S2 | -0.872% |
| O=C(CN1CCN(Cc2cccc(Cl)c2)C1=O)N1CCCC1 | -2.41% |
| CCn1c2ccccc2c2cc(CN3CCCCCC3)ccc21 | 1.48% |
| CC1CC(C)CN(C(=O)COc2ccc(Cl)cc2)C1 (stereo not drawn) | 0.727% |
| CCc1ccc(N2C(=O)CC(N(CCc3ccccc3Cl)C(C)=O)C2=O)cc1 (stereo not drawn) | -2.83% |
| O=C(O)CSc1cccc(C(=O)Nc2ccc(Br)cc2)c1 | 3.25% |
| Cn1c2ccccc2c2cnn(CC(=O)NCCCN3CCc4ccccc4C3)c(=O)c21 | -0.439% |
| CC(=O)c1ccc(NC(=O)c2ccc(C)c(Br)c2)cc1 | -1.61% |
| CCc1nn(CC(=O)NCCN2CCN(C)CC2)c(=O)c2cc3sccc3n12 | 1.59% |
| O=C(c1cc(F)c(F)cc1Cl)N1CCCCC1 | 0.00178% |
| Cc1cc(-c2[nH]nc3c2C(c2ccc(F)cc2)C(C#N)=C(N)O3)c(C)s1 (stereo not drawn) | -4.65% |

| SMILES | % Inhibition @ 10 uM |
| --- | --- |
| COc1ccc(-c2cc(C(=O)N(C)Cc3ccccc3)no2)cc1OC | 13.3% |
| Oc1ccccc2c3c(nc1-2)CCCC3 | 0.27% |
| Cc1nc2cc(NC(=O)c3ccc(NS(=O)(=O)c4cccc(Cl)c4)cc3)ccc2s1 | 1.84% |
| Cc1cc(C(=O)NC(C)c2ccc3c(c2)OCO3)cs1 (stereo not drawn) | 0.493% |
| COc1ccccc1CNC(=O)C1CCCN(S(=O)(=O)N2CCCCCC2)C1 (stereo not drawn) | 4.36% |
| CN(C)c1ccc(C=C2C(=O)OC(C)(C)OC2=O)cc1 | 4.34% |
| O=C(c1cc2nc(-c3ccco3)cc(C(F)(F)F)n2n1)N1CCN(C23CC4CC(CC(C4)C2)C3)CC1 | -0.834% |
| Cc1ccc(C2CC(c3cccc(Cl)c3)n3ncnc3N2)cc1C (stereo not drawn) | 0.219% |
| Fc1ccc(-c2csc(-c3cccnc3)n2)cc1 | -2.09% |
| C=C(C)CN(CC)C1CCN(CCc2ccccc2)CC1 | 6.26% |
| Nc1nc(O)c2nc(Br)n(C3OC(CO)C(O)C3O)c2n1 (stereo not drawn) | -1.29% |
| Fc1ccc(F)c(CN2CCN(c3cccc(Cl)c3)CC2)c1 | -3.5% |
| CCCOc1ccccc1N1C(=O)C2CC(C)=C(C)CC2C1=O (stereo not drawn) | 0.634% |
| COc1ccc(-c2[nH]c(-c3ccc(C)cc3)nc2SCC(=O)NCc2ccco2)cc1OC | -1.58% |
| CCC(C)(C)C1CCc2sc3ncnc(N4CCOCC4)c3c2C1 (stereo not drawn) | 2.56% |
| CCC(=O)N1c2ccccc2N=C2CC(C)(C)CC(O)=C2C1c1ccc2c(c1)OCO2 (stereo not drawn) | 1.01% |
| CC1CC(C)CN(C(=O)C2CCN(C(=O)c3cnn(-c4ccccc4)c3-n3cccc3)CC2)C1 (stereo not drawn) | -7.1% |
| COCCCNC(=O)CCCc1nnc2n(C)c(=O)c3sccc3n12 | -5.95% |
| Cc1ccc(C(=O)NC2CCCCCC2)cc1[N+](=O)[O-] | -1.22% |
| CC1CCN(c2ccc3nnc(CCC(=O)NC(C)c4ccc5c(c4)OCCO5)n3n2)CC1 (stereo not drawn) | -2.55% |
| O=C(CCC(=O)Nc1ccccc1Cl)Nc1ccccc1Cl | -3.23% |
| OCCCn1c(-c2ccccc2)cn2c3ccccc3nc12 | 5% |
| CCCNC(=O)c1cc2n(n1)C(C(F)(F)F)CC(c1ccc(Br)cc1)N2 (stereo not drawn) | -0.67% |
| Cn1c(=S)[nH]c2c(c1=O)C1(CCCCC1)Cc1ccccc1-2 | -6.09% and 0.756% |
| Cc1cccc(OCC(=O)Nc2ccc(S(=O)(=O)Nc3onc(C)c3C)cc2)c1 | -2.3% |
| O=C1CSC(C23CC4CC(CC(C4)C2)C3)N1 (stereo not drawn) | -1.33% |
| FC(F)(F)c1ccccc1CN1CCOCC1 | -0.0494% |

| SMILES | % Inhibition @ 10 uM |
| --- | --- |
| Cc1ccc(NCC(=O)c2ccc([N+](=O)[O-])cc2)cc1 | -2.03% |
| CCN(CC)CCOC(=O)C1(c2ccccc2)CCCC1 | 3.44% |
| CCc1ccc(/C(O)=C/C=N/c2ccc3c(c2)OCO3)cc1 | 2.46% |
| CC(C)(C)NC(=O)CCSc1ccc(Cl)cc1 | -1.33% |
| CCN(CC)CCNC(=O)c1c(O)nc2c(c1O)CCCC2 | 2.8% |
| COc1cc(OC)c(C2CC(=O)NC3=C2C(=O)CCC3)cc1OC (stereo not drawn) | -8.2% |
| Cc1ccnc(NC(=O)CCCCC(=O)O)c1 | -0.467% |
| CCOc1ccccc1C(=O)Nc1ccc(F)cc1 | -1.07% |
| CN(C)CCC(=O)c1ccc(Br)cc1 | 0.968% |
| C#Cc1cccc(NC(=O)COc2ccccc2OC)c1 | -2.74% |
| CC(C)Oc1ccccc1C=C1C(=O)NC(=O)NC1=O | 1.13% |
| CC(C)CCNC(=O)CCn1nc(-c2ccc(Cl)cc2)ccc1=O | -3.58% |
| COc1ccccc1-c1nc2s/c(=C\c3ccc(C)o3)c(=O)n2n1 | -4.85% |
| C=CCn1c(SCC(=O)NCc2cccnc2)nc2sc3c(c2c1=O)CCCC3 | -7.02% |
| CN(C)CCN/C=C1\C(=O)NC(=O)N(CCC2=CCCCC2)C1=O | 8.6% |
| CCN(CC)CCNS(=O)(=O)c1cc(Br)cnc1N | -1.06% |
| COc1ccc(Cc2nnc(NC(=O)CSCc3ccccc3)s2)cc1 | 0.565% |
| COCCN1C(=S)NC2CC1(C)Oc1ccc(Cl)cc12 (stereo not drawn) | -17.3% |
| Nc1nc(NCc2ccccc2)nc(-c2cc(Cl)ccc2O)n1 | 5.49% |
| COc1cc(/C=C(\C#N)c2nn(CCO)c(N)c2C#N)cc(Br)c1OCc1ccccc1 | 7.62% |
| CCOC(=O)C(/C=N/c1ncccn1)=C(/O)OCC | 0.487% |
| Cc1cc(C)c(C#N)c(SCC(=O)Nc2ccc(Br)cc2)n1 | 7.11% |
| O=C(Nc1cccnc1)c1ccc(S(=O)(=O)c2ccc(Cl)cc2)cc1 | 4.95% |
| Cc1cc(OCC(=O)Nc2ccccc2C(=O)O)cc(C)c1Cl | 1.57% |
| CNC(=O)c1nnn(Cc2ccccc2)c1NC(C)=O | 4.32% |
| COc1ccc(Br)cc1CNC(=O)Cn1nc(C)n2c(cc3occc32)c1=O | -1.6% |
| CCNc1nc(ON=C(C)C)nc(N(C)C)n1 | 2.95% |

| SMILES | % Inhibition @ 10 uM |
| --- | --- |
| Cc1cccc(-c2noc(CCC(=O)Nc3cccnc3)n2)c1 | -2.21% |
| Cc1ccc(-c2cc(C(=O)N3CCN(C(=O)c4ccco4)CC3)no2)cc1 | 3.54% |
| CCN1CCC(Nc2ccc3c[nH]nc3c2)CC1 | -0.0953% |
| O=C(COc1ccc2c(=O)c(-c3ccc(Cl)cc3)coc2c1)N1CCOCC1 | 1.05% |
| COc1ccc(C2=NS(=O)(=O)N(C)C(C(=O)NCC(C)C)=C2)cc1 | -2.84% |
| COc1ccc2nc(C)cc(Nc3ccc(C(=O)O)cc3)c2c1 | 1.93% |
| CCN(CC)CCCNC(=O)Cn1ncc2c(=O)oc3ccc(C)cc3c21 | -1.7% |
| CCc1ccc(CN2CCN(c3cccc(C(F)(F)F)c3)CC2)cc1 | -0.127% |
| N#CCc1ccc(NC(=O)CN(c2ccc(F)cc2)S(=O)(=O)c2ccc3c(c2)OCCO3)cc1 | 8.95% |
| Cc1cc(C)c(-c2c(O)n3c4[n+](c2=O)CCCN4CCC3)c(C)c1 | -1.24% |
| Cc1cc(/C=C2/NC(=O)N(c3ccccc3)C2=O)c(C)n1C | 1.86% |
| CCOc1ccc(-n2c(CSc3ncccn3)nnc2SCC(N)=O)cc1 | -4.94% |
| COc1ccc2c(=O)cc(C(F)(F)F)oc2c1 | -3.32% |
| Cc1c(Cl)ccc2c1NC(C(=O)O)C1CC=CC21 (stereo not drawn) | 21.6% |
| Cn1cc(C2NC(=O)c3c(sc4c3CCCC4)N2)c2ccccc21 (stereo not drawn) | 1.24% |
| NC(=O)C1CCN(C(=O)c2ccc3nc(N4CCCCC4)sc3c2)CC1 | -2.37% |
| COc1ccccc1/C=C1\C(=O)C(=O)c2ccccc21 | 2.76% |
| COc1ccc2c(c1)C1=NN(C(C)=O)C(c3ccccc3)C1CC2 (stereo not drawn) | -2.6% |
| O=C1N=C(N2CCN(Cc3ccccc3)CC2)S/C1=C\c1cccc(O)c1 | 51% |
| c1ccc(OCCN2CCCC2)cc1 | 2.76% |
| Cn1c(C(=O)O)c(CC(=O)N2CCN(Cc3ccc4c(c3)OCO4)CC2)c2ccccc21 | 2.06% |
| C=CCC1(NCc2ccccc2)CCN(CC)CC1 | 0.392% |
| COc1ccc2c(CCNC(=O)c3ccco3)c[nH]c2c1 | 0.00178% |
| COc1ccc(C(=O)c2cc(CC(=O)O)c(-c3ccc(OC)cc3)s2)cc1 | -1.82% |
